{
  "source": "patent US6245563A",
  "about": "“Enhanced activation of natural killer cells using an NK cell activator and hydrogen peroxide scavenger or inhibitor” (priority 2000, dated 2001)",
  "key": {"[1]": {"test_system": "respiratory burst of monocytes", "assay": "Respiratory burst activity of monocytes (luminol-enhanced chemiluminescence)", "format": "cell-based, human", "settings": "for effect on the respiratory burst of monocytes: compared with histamine; for inhibition of generation of reactive oxygen products by monocytes: acting via monocyte H2 receptors, conclusion", "procedure": "Chemiluminescence (CL) of cells was recorded at 37° C. in a 6-channel Biolumat LB 9505 (Berthold Co., Wildbad, Germany) using 4 ml polypropylene tubes as described by Lock et al. Anal. Biochem. 173:450 (1988). The reaction mixture contained 0.8 ml elutriated monocytes (5×10^6 cells/ml). The tubes were allowed to equilibrate for 5 minutes at 37° C. before formylmethionyl-leucyl-phenylalanine (fMLP; Sigma; 10^-7 M final concentration) and luminol (Sigma; 10^-6 M) were added and light emission recorded. Formylmethionyl-leucyl-phenylalanine was dissolved to 10^-2 M in dimethyl sulfoxide and subsequently diluted in Krebs-Ringer phosphate buffer supplemented with glucose (10 mM), Ca^2+ (1 mM), and Mg^2+ (1.5 mM). Luminol was dissolved in 0.1 mM NaOH to 5×10^-2 M and further diluted in Krebs-Ringer phosphate buffer.\nIn a second set of experiments, effects of histamine and H2 R-interactive compounds on the respiratory burst activity, as measured by the luminol-enhanced CL response of enriched, elutriated monocytes, were studied. Monocytes were treated with culture medium (control), histamine (10^-5 M), sodium azide (10^-5 M), or histamine and sodium azide as described below. Emission of CL was recorded after addition of fMLP at time=0."}, "NK cells": {"test_system": "NK cells", "settings": "presence of histamine and serotonin; cited from earlier work"}, "[2]": {"test_system": "histamine H2 -type receptors", "assay": "Antagonism of the effect of histamine on the respiratory burst of monocytes", "format": "cell-based, human", "settings": "histamine 10^-5 M, fMLP-stimulated monocytes", "procedure": "Monocytes were treated with histamine plus ranitidine (open circles) or AH20239AA (filled circles).\nIn these experiments, monocytes were treated with histamine (10^-5 M) together with ranitidine or AH20239AA at final concentrations indicated in FIG. 7. All cells were treated with fMLP at time=0."}},
  "note": "Like-named read-outs stand apart in the source and are kept apart here.",
  "data": [
    {"smiles": "CN(C)CCCSC(=N)N", "note": "[Dimaprit]", "values": [
      {"measurement": "effect on the respiratory burst of monocytes", "setting": "[1]", "value": "mimicked the effect of histamine on the respiratory burst of monocytes"},
      {"measurement": "incubation time until maximal effect on respiratory burst (not maximal until after)", "setting": "[1]; data not shown", "value": "10 to 15", "unit": "min"}
    ]},
    {"smiles": "CNC(=N)NCCC[C@H](N)C(=O)O", "note": "[L-NMMA]", "values": [
      {"measurement": "cell lysis %", "setting": "K562 target cells; 2 × 10^-4 M, MO+, medium", "value": "11 ± 1", "unit": "%"},
      {"measurement": "cell lysis %", "setting": "K562 target cells; 2 × 10^-4 M, MO+, with histamine 10^-4 M", "value": "45 ± 3", "unit": "%"},
      {"measurement": "cell lysis %", "setting": "K562 target cells; 2 × 10^-4 M, MO-, medium", "value": "61 ± 3", "unit": "%"},
      {"measurement": "cell lysis %", "setting": "K562 target cells; 2 × 10^-4 M, MO-, with histamine 10^-4 M", "value": "54 ± 2", "unit": "%"}
    ]},
    {"smiles": "CC(=O)N(O)CCCCCNC(=O)CCC(=O)N(O)CCCCCNC(=O)CCC(=O)N(O)CCCCCN", "note": "[deferox, deferoxamine]", "values": [
      {"measurement": "cell lysis %", "setting": "K562 target cells; 10^-4 M, MO+, medium", "value": "12 ± 3", "unit": "%"},
      {"measurement": "cell lysis %", "setting": "K562 target cells; 10^-4 M, MO+, with histamine 10^-4 M", "value": "60 ± 2", "unit": "%"},
      {"measurement": "cell lysis %", "setting": "K562 target cells; 10^-4 M, MO-, medium", "value": "81 ± 2", "unit": "%"},
      {"measurement": "cell lysis %", "setting": "K562 target cells; 10^-4 M, MO-, with histamine 10^-4 M", "value": "74 ± 5", "unit": "%"}
    ]},
    {"smiles": "NCCc1c[nH]cn1", "note": "[histamine]", "values": [
      {"measurement": "inhibition of generation of reactive oxygen products by monocytes", "setting": "[1]", "value": "inhibit the generation of reactive oxygen products by monocytes"},
      {"measurement": "onset of block of respiratory burst activity", "setting": "[1]; data not shown", "value": "blocked respiratory burst activity within seconds"},
      {"measurement": "inhibition of respiratory burst activity", "setting": "[1]; histamine 10^-5 M, unstimulated and fMLP-stimulated monocytes", "value": "effectively inhibited both the burst activity of unstimulated monocytes and the induction of burst by fMLP"},
      {"measurement": "inhibition of fMLP induced CL response with sodium azide and excess HRP", "setting": "[1]; sodium azide-treated monocytes, exogenous HRP", "value": "inhibited the fMLP induced CL response"},
      {"measurement": "effect on suppression of NK cells", "setting": "NK cells", "value": "halted"},
      {"measurement": "effect in the presence of catalase", "setting": "K562 target cells; presence of monocytes and catalase", "value": "ineffective in the presence of catalase"}
    ]},
    {"smiles": "OC[C@@H](O)[C@@H](O)[C@H](O)[C@H](O)CO", "note": "[mannitol]", "values": [
      {"measurement": "cell lysis %", "setting": "K562 target cells; 3 × 10^-4 M, MO+, medium", "value": "20 ± 1", "unit": "%"},
      {"measurement": "cell lysis %", "setting": "K562 target cells; 3 × 10^-4 M, MO+, with histamine 10^-4 M", "value": "67 ± 2", "unit": "%"},
      {"measurement": "cell lysis %", "setting": "K562 target cells; 3 × 10^-4 M, MO-, medium", "value": "73 ± 3", "unit": "%"},
      {"measurement": "cell lysis %", "setting": "K562 target cells; 3 × 10^-4 M, MO-, with histamine 10^-4 M", "value": "68 ± 3", "unit": "%"}
    ]},
    {"smiles": "CN(C)CCSC(=N)N", "note": "[nor-dimaprit]", "values": [
      {"measurement": "effect on the respiratory burst of monocytes", "setting": "[1]", "value": "ineffective"}
    ]},
    {"smiles": "CNC(=C[N+](=O)[O-])NCCSCc1ccc(CN(C)C)o1", "note": "[ranitidine]", "values": [
      {"measurement": "block of the effects of histamine on the respiratory burst", "setting": "[2]", "value": "entirely blocked"}
    ]},
    {"smiles": "NCCc1c[nH]c2ccc(O)cc12", "note": "[serotonin]", "values": [
      {"measurement": "inhibition of generation of reactive oxygen products by monocytes", "setting": "[1]", "value": "inhibit the generation of reactive oxygen products by monocytes"},
      {"measurement": "effect on suppression of NK cells", "setting": "NK cells", "value": "halted"}
    ]},
    {"smiles": "NCCS(=O)(=O)O", "note": "[taurin]", "values": [
      {"measurement": "cell lysis %", "setting": "K562 target cells; 10^-3 M, MO+, medium", "value": "6 ± 1", "unit": "%"},
      {"measurement": "cell lysis %", "setting": "K562 target cells; 10^-3 M, MO+, with histamine 10^-4 M", "value": "64 ± 3", "unit": "%"},
      {"measurement": "cell lysis %", "setting": "K562 target cells; 10^-3 M, MO-, medium", "value": "70 ± 4", "unit": "%"},
      {"measurement": "cell lysis %", "setting": "K562 target cells; 10^-3 M, MO-, with histamine 10^-4 M", "value": "75 ± 4", "unit": "%"}
    ]}
  ]
}
